What was measured:
[1] = biological target: T1, 人单核细胞白血病细胞(THP-1)表面LILRB4 (human, UniProt Q8NHJ6 22-448); assay: cell-based or functional assay
[2] = biological target: T1, 人单核细胞白血病细胞(THP-1)表面LILRB4; assay: cell-based or functional assay; remark: listed apart in the source

B1: 人源化抗体HB-Ⅲ (human IgG1 / human Ck) (antibody)
heavy: QVQLVQSGAEVKKPGASVKVSCKASGYTFTNYWMHWVRQAPGQGLEWIGEINPSNGRTNYNEKFKTRATLTVDTSTSTAYMELSSLRSEDTAVYYCARWGQLGLREGYYAVDYWGQGTLVTVSSASTKGPSVFPLAPSSKSTSGGTAALGCLVKDYFPEPVTVSWNSGALTSGVHTFPAVLQSSGLYSLSSVVTVPSSSLGTQTYICNVNHKPSNTKVDKRV[letters of human IgG1 Fc with changes omitted]
light: DIVMTQSPSSLSASVGDRVTITCRASQDISNYLNWYQQKPGGAVKLLIYYTSRLHSGVPSRFSGSGSGTDYTFTISSLQPEDIATYFCQQGNTLPPTFGGGTKVEIKRTVAAPSVFIFPPSDEQLKSGTASVVCLLNNFYPREAKVQWKVDNALQSGNSQESVTEQDSKDSTYSLSSTLTLSKADYEKHKVYACEVTHQGLSSPVTKSFNRGEC
IC50, 抑制THP-1分泌ARG1 (arginase activity in supernatant, ApoE 0.5μg/mL) [1]: 30.6 µg/mL
IC50, 生物学活性检测(报告基因), THP-1-NF-κB-Luc cells with ApoE [2]: 0.83 µg/mL
